From article PMC6078952
Results are given in words; binding and its absence hold for the method and conditions named. Some binding calls cover weakened binding; strength is not graded here.

Sequences of proteins named here, by UniProt entry; tags and fusion partners are left off. A change or cut given only in a name is not applied to a line headed by its entry. A line that says so, or that is headed by a name, gives the form on record, which may keep a tag or linker. Residues count along the entry.
UniProt Q15848, residues 19-244: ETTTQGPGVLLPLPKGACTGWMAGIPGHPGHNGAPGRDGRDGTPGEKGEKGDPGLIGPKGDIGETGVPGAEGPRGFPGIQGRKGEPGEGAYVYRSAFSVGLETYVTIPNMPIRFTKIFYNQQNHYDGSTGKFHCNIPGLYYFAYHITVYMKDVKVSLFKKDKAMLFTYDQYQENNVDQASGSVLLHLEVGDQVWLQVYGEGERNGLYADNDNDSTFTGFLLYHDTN
UniProt P13608, residues 17-2364: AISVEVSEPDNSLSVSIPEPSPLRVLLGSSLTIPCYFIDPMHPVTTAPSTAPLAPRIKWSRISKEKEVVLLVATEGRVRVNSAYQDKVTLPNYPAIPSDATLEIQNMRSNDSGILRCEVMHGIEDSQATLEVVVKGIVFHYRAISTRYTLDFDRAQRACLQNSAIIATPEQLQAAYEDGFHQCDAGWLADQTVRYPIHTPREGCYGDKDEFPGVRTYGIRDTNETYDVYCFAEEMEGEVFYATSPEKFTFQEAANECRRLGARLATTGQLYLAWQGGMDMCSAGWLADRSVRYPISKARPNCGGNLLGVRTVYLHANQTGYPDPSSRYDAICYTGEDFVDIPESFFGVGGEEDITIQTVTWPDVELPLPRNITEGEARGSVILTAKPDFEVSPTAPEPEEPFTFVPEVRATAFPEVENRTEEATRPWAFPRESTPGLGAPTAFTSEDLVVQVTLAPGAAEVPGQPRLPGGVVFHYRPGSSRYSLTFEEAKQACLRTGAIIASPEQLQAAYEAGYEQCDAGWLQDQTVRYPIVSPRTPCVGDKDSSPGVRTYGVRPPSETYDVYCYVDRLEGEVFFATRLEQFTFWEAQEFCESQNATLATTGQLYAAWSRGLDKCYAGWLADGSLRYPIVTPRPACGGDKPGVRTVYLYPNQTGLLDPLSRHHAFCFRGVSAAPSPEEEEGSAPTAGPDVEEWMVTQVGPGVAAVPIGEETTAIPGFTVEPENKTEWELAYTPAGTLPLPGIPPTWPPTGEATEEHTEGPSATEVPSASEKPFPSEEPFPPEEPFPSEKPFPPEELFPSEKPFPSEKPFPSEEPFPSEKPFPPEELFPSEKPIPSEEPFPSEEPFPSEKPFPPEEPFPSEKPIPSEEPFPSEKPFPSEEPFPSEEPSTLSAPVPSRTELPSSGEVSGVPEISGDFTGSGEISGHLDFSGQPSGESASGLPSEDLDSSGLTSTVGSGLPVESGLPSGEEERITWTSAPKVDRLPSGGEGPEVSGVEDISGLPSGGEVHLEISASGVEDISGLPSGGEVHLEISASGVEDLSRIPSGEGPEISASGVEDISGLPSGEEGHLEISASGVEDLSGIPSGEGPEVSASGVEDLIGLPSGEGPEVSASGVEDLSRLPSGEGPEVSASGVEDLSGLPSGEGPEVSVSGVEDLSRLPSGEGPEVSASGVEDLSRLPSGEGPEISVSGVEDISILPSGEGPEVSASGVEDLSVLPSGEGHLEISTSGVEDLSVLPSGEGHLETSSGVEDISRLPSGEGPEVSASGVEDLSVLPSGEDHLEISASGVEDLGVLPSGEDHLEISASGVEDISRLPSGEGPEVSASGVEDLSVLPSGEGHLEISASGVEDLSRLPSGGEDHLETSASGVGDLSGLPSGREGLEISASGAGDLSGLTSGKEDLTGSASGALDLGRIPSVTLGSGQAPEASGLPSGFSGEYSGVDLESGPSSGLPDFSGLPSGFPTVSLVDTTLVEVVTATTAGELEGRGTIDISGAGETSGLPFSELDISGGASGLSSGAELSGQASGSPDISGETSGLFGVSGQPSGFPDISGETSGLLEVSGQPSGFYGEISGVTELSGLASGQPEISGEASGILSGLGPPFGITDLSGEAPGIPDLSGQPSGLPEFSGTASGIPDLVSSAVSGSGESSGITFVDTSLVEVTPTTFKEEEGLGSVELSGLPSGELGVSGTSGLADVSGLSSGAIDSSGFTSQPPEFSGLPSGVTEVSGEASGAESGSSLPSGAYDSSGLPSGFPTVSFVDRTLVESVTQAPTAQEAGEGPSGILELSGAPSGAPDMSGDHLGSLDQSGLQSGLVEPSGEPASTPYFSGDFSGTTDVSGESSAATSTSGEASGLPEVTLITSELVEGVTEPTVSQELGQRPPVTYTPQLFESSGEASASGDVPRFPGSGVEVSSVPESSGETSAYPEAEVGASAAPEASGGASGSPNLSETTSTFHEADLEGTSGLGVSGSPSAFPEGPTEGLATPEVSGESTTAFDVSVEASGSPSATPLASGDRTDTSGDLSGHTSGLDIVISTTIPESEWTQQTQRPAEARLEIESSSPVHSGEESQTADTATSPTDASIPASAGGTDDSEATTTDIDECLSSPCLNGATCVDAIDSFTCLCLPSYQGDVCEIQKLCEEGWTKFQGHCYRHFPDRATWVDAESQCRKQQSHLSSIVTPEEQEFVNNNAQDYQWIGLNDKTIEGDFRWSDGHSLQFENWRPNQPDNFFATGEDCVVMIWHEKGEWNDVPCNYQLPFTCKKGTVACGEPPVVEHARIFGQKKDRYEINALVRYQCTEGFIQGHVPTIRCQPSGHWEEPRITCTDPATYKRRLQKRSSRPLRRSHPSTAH
UniProt Q96GW7, residues 23-911: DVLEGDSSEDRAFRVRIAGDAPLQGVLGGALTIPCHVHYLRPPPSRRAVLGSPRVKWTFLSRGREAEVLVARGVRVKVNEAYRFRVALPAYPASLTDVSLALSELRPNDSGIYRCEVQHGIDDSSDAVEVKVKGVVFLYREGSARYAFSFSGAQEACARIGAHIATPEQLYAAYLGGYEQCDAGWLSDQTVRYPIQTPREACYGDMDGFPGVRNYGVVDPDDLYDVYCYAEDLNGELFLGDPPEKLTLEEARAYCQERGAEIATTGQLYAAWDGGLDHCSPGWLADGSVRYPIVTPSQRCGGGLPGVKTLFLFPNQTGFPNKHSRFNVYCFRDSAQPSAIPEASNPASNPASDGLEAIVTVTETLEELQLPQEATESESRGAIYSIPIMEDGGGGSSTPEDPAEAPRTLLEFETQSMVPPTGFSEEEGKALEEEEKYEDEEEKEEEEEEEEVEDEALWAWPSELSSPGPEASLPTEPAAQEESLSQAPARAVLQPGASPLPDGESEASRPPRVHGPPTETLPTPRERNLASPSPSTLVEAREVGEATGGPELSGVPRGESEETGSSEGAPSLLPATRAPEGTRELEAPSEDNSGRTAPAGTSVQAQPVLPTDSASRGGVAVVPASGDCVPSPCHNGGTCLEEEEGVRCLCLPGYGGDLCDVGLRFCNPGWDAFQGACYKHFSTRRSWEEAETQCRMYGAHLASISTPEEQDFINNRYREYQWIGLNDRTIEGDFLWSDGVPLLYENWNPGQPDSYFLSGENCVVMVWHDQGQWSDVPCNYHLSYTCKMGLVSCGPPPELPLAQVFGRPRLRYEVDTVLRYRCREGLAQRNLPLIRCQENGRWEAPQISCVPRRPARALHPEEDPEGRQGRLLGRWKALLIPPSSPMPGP
UniProt P42639: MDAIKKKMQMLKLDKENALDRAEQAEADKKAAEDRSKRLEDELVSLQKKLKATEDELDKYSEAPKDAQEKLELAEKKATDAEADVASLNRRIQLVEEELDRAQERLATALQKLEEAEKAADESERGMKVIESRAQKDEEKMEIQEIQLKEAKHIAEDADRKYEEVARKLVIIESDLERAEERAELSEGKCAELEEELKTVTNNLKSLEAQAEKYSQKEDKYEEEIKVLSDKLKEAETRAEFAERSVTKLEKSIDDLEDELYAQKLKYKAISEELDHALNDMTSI
Lysyl oxidase propeptide (LOX-PP) (Pro24Leu) (P28300, form named): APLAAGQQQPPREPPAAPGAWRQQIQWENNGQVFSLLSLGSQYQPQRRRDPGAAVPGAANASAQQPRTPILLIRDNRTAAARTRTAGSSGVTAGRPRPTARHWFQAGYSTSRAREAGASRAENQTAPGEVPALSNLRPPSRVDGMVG

Legend:
Test in all cases: SPR; SPR imaging (SPRi, Biacore Flexchip): partners spotted in triplicate on a bare gold chip at 0.06 to 1 mg/ml; purified LOX-PP injected at 2 µM and recirculated for 20 min; PBS with 0.05% Tween 20, 25 °C; both purified
[1] = biological target: Adiponectin (UniProt Q15848)
[2] = biological target: Aggrecan (UniProt P13608)
[3] = biological target: Brevican (UniProt Q96GW7)
[4] = biological target: Calreticulin (UniProt P27797)
[5] = biological target: Collagen I (UniProt P02452)
[6] = biological target: T1, Discoidin domain-containing receptor 2 ectodomain (DDR2) (UniProt Q16832)
T1 sequence: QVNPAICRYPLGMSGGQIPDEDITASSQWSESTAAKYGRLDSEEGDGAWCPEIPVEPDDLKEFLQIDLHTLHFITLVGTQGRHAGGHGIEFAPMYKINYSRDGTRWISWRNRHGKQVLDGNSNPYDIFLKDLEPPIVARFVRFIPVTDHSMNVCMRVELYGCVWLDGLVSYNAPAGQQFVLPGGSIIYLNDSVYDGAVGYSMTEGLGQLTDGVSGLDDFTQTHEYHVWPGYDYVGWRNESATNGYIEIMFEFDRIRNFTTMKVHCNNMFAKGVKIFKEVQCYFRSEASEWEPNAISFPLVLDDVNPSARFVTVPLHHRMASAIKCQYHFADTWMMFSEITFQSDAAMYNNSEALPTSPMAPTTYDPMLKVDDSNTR

[7] = biological target: Integrin α4β1 ectodomain (UniProt P13612)
[8] = biological target: T2, Latent transforming growth factor β binding protein 1 (4-7 EGF-like domains) (UniProt Q14766)
T2 sequence: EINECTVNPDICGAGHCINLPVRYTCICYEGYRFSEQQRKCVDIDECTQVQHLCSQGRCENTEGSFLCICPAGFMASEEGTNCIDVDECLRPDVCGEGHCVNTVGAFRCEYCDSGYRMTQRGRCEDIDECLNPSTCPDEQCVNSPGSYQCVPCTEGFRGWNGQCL

[9] = biological target: T3, Latent transforming growth factor β binding protein 1 (9-14 EGF-like domains) (UniProt Q14766)
T3 sequence: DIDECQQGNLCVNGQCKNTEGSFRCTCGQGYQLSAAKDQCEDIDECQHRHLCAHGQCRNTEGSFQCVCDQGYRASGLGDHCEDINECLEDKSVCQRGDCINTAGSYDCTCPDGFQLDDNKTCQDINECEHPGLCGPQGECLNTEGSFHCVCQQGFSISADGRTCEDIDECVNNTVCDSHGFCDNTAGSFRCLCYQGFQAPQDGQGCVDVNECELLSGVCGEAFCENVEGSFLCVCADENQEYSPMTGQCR

[10] = biological target: T4, Osteonectin (SPARC) (UniProt P09486)
T4 sequence: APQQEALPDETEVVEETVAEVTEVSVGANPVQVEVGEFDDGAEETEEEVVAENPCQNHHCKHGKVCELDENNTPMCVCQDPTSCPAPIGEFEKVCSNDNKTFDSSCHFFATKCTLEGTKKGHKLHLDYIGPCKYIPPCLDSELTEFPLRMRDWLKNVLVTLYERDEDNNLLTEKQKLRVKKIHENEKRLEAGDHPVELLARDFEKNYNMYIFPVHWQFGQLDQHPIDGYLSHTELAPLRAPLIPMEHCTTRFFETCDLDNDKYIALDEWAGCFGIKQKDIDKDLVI

[11] = biological target: Perlecan (UniProt Q05793)
[12] = biological target: Platelet-derived growth factor receptor beta (PDGFRβ), mutant Glu241Asp (UniProt P09619)
[13] = biological target: Tropomyosin (UniProt P42639)

- binding [1]: no binding (tested: 2 µM)
- binding [2]: no binding (tested: 2 µM)
- binding [3]: no binding (tested: 2 µM)
- binding [4]: no binding (tested: 2 µM)
- binding [5]: binds
- binding [6]: no binding (tested: 2 µM)
- binding [7]: no binding (tested: 2 µM)
- binding [8]: binds
- binding [9]: binds
- binding [10]: no binding (tested: 2 µM)
- binding [11]: no binding (tested: 2 µM)
- binding [12]: no binding (tested: 2 µM)
- binding [13]: no binding (tested: 2 µM)
Substance: Lysyl oxidase propeptide (LOX-PP) (Pro24Leu) (from UniProt P28300 22-168) (domain or fragment)
